{"source": "paper PMC4330362", "about": "“The ATP-mediated formation of the YgjD–YeaZ–YjeE complex is required for the biosynthesis of tRNA t^6A in Escherichia coli” (Nucleic Acids Research, 2015)", "molecular_target": "T1, YgjD (TsaD) (Escherichia coli K-12, UniProt P05852 1-337)", "T1 construct": "YgjD (TsaD), Escherichia coli K-12, 337 residues; gene amplified from genomic DNA, cloned in pET9a; Alone it is a homodimer by gel filtration and SAXS; also called Ec–YgjD; source: E. coli BL21(DE3), purified (details in the Supplementary Materials)", "experiment": "ITC; YgjD as 'titrant' (20-30 uM), YeaZ as 'injectant' (200-360 uM); in absence of nucleotides (ADP or ATP)", "conditions": "both partners purified"}
{"binder": "YeaZ^[…] (domain or fragment, Made by Quikchange mutagenesis of pET9a–yeaZ (YeaZ–Δ220); also called YeaZ–Δ220; YeaZ Δ220–231; source: E. coli BL21(DE3), purified (details in the Supplementary Materials)) not shown", "values": [{"measurement": "Kd", "value": "30 ± 10", "unit": "nM"}, {"measurement": "dH", "value": "5.96 ± 0.12", "unit": "kcal/mol"}, {"measurement": "stoichiometry N", "value": "1.06 ± 0.0064"}]}
